Results: PubChem BioAssay AID886 (National Center for Advancing Translational Sciences (NCATS), 2007)
Values joined by “and” are separate entries in the source; they are usually repeats but may differ in a detail not shown here. Equal values may be shown once. Hit rate of the full screen: of about 73,000 compounds, about 2,500 (3.4%) were called active. The shares of active, inactive and inconclusive entries below differ from those in the screen. The call rests on the fitted dose curve; in most records, active means well fitted inhibition curve with a large enough effect; inconclusive means small, poorly fitted or top-dose-only effect; inactive means no such curve, though single readings can be large or run the other way. Where the call is inconclusive, the potency comes from a doubtful curve fit.

target: 3-hydroxyacyl-CoA dehydrogenase type-2 (Homo sapiens) (UniProt Q99714); assay: qHTS Assay for Inhibitors of HADH2 (Hydroxyacyl-Coenzyme A Dehydrogenase, Type II); conditions: recombinant HADH2, NADH fluorescence, beta-hydroxybutyryl-CoA; activity change, negative = inhibition: at 57.1 µM (top of the series); further: nearly all actives have a fitted effect of over 60% in size
Sequence of UniProt Q99714 (Q99714 whole entry, looked up): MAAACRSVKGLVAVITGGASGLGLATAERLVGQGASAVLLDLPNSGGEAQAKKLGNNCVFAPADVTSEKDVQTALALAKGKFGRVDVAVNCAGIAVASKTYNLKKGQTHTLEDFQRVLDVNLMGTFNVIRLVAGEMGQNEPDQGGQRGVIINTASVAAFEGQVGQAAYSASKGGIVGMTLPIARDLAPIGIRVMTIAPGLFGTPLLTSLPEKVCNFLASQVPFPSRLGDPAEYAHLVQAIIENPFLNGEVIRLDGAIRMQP
Sequence of UniProt Q99714 (Q99714 whole entry, looked up): as above
Method in brief: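 NADH fluorescence (ex 360/em 450 nm) read every 30 s for 4 min; activity taken as last-minus-first time point difference. Enzyme 20 nM, NAD+ 1 mM, beta-hydroxybutyryl-CoA 90 uM, pH 9.0 Tris buffer.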
On the % scale 0 is the no-effect control and ±100 the full control effect; potency means the concentration at half of the fitted maximal effect; tags describe the fitted curve by direction and shape.

| Structure (SMILES) | Potency | activity change, negative = inhibition |
| --- | --- | --- |
| Cn1c(=O)c2c(SCc3cccnc3)nc(C3CC3)nc2n(C)c1=O | inactive | – |
| COc1cc(-c2nc(-c3ccc(Br)o3)no2)cc(OC)c1OC | inconclusive: 6.31 µM [inhibitor, single point] | – |
| CCCCC(=O)N(CCOC)c1nnc(-c2ccc(OC)cc2)s1 | inconclusive: 39.8 µM [inhibitor, single point] | – |
| COC(=O)c1ccccc1NC(=O)N1CCCC1 | inconclusive: 39.8 µM [inhibitor, single point] | – |
| O=c1onc2cnc3ccccc3n12 | active: 25.1 µM and active: 20 µM | – |
| Cc1ccc(CCNC(=O)C2CCC(=O)N2C2CCCC2)cc1 (centres undefined) | inactive | – |
| COc1cccc(Nc2ncc3ncc(=O)n(C[C@H]4CCCO4)c3n2)c1 | inactive | – |
| O=C(Nc1ccccc1Cl)N1CCN(c2ccc3nnc(-c4ccccc4)n3n2)CC1 | inconclusive: 3.98 µM [inhibitor, single point] | – |
| CC(=O)N(Cc1cc2cc(C)c(C)cc2n2nnnc12)CC1COCCO1 (centres undefined) | inconclusive: 1 µM [inhibitor, partial curve] | – |
| COC(=O)CSc1nnc(-c2ccco2)o1 | inactive | – |
| COC(=O)c1ccc(OCC2c3cc(OC)c(OC)cc3CCN2C(=O)C2CC2)cc1 (centres undefined) | inactive | – |
| N#CCSc1nnc(CNc2cccc(Cl)c2)o1 | inconclusive: 39.8 µM [inhibitor, single point] | – |
| CC(=O)N1CCc2c(sc(NC(=O)c3ccc4c(c3)OCCO4)c2C#N)C1 | inconclusive: 0.158 µM [inhibitor, full curve] | – |
| COc1cccc(C2CC(c3ccccc3)Nc3ncnn32)c1 (centres undefined) | inconclusive: 31.6 µM [inhibitor, single point] | – |
| CCN1CCN(Cc2nc3c(c(=O)n(C)c(=O)n3C)n2CCc2ccccc2)CC1 | inconclusive: 20 µM [inhibitor, single point] | – |
| CCCCCn1c(=NC(C)=O)c(C#N)cc2c(=O)n3ccccc3nc21 | active: 3.16 µM | – |
| CCCn1c(NCc2ccco2)nc2ccccc21 | inactive | – |
| O=C(Nc1nc(-c2ccccc2)cs1)C1CCCO1 (centres undefined) | inactive | – |
| Cc1ccc(S(=O)(=O)NCC(=O)OC2CCOC2=O)cc1 (centres undefined) | inconclusive: 3.16 µM [inhibitor, partial curve] | – |
| COC(=O)[C@@]1(Cc2ccc(OC)cc2)[C@H]2c3cc(C(=O)N4CCCC4)n(Cc4ccc(C(F)(F)F)nc4)c3C[C@H]2CN1C(=O)c1ccccc1 | inactive | – |
| CCn1c(=N)c(C(=O)OC)cc2c(=O)n3ccccc3nc21 | active: 20 µM | – |
| CCc1cc2c(=O)c(Oc3ccccc3F)c(C)oc2c(CN(C)C)c1O | active: 31.6 µM | – |
| CN(C)c1ccc(-c2cc(-n3ccnc3)ncn2)cc1 | active: 20 µM | – |
| O=c1c2c3c(sc2nc2n1CCCCC2)CCCCC3 | inconclusive: 39.8 µM [inhibitor, single point] | – |
| COc1cc(C(=O)Nc2nc(OC)c(-c3ccccc3)c(OC)n2)cc(OC)c1OC | inconclusive: 31.6 µM [inhibitor, single point] | – |

| Structure (SMILES) | Potency | activity change, negative = inhibition |
| --- | --- | --- |
| COc1cc(SC)ccc1C(=O)Nc1ccc2c(c1)CCN2S(C)(=O)=O | inconclusive: 39.8 µM [inhibitor, single point] | – |
| COc1cc(OC)c(C(=O)Nc2ccc(N(C)C)cc2)cc1OC | inconclusive: 12.6 µM [inhibitor, partial curve] | – |
| O=S(=O)(Nc1cccc2ccccc12)N1CCCC1 | active: 31.6 µM | – |
| Cc1cnc(CNc2cc(-c3ccc4c(c3)OCO4)ncn2)cn1 | inactive | – |
| O=C(O)c1cc(-c2cccs2)nc2cc3c(cc12)OCCO3 | active: 15.8 µM | – |
| COC(=O)NCC(c1cccnc1)N1CCOCC1 (centres undefined) | inconclusive: 39.8 µM [inhibitor, single point] | – |
| Cc1cc(NC(=O)Nc2ccc3c(ccn3C)c2)sn1 | inactive | – |
| N#CCCn1c(=O)cnc2cnc(N3CCNCC3)nc21 | inconclusive: 20 µM [inhibitor, partial curve] | – |
| CCOC(=O)c1ccoc1CSCc1ccc(C(=O)OC)o1 | inconclusive: 39.8 µM [inhibitor, single point] | – |
| COc1cccc(-c2ccc(-c3noc(-c4ccccc4F)n3)c(OC)n2)c1 | active: 15.8 µM | – |
| C[C@@H]1CNCCN1S(=O)(=O)c1cccc2cnccc12 | inconclusive: 6.31 µM [inhibitor, single point] and inconclusive: 25.1 µM [inhibitor, partial curve] | – |
| CCOC(=O)Cc1csc(NC(=O)c2csc(C)c2)n1 | inactive | – |
| COC(=O)c1cc(OC)c(OC)cc1NC(=O)c1ccco1 | inconclusive: 39.8 µM [inhibitor, single point] | – |
| Cc1c(Cc2ccccc2)c(=O)oc2c(CN(C)C)c(O)c(Cl)cc12 | inconclusive: 1.58 µM [inhibitor, single point] | – |
| COc1ccc(N2CSC3=C(C#N)C(c4cccc(OC)c4OC)CC(=O)N3C2)cc1 (centres undefined) | active: 2 µM | – |
| O=C(CCCOc1ccccc1)Nc1nnc(C2CCCO2)s1 (centres undefined) | inconclusive: 25.1 µM [inhibitor, single point] | – |
| COc1ccc(NC(=O)N2CCCC3(CCNCC3)C2)cc1 | inactive | – |
| COCCN1Cc2cccc(C(=O)Nc3cc(C)cc(C)c3)c2C1=O | inconclusive: 39.8 µM [inhibitor, single point] | – |
| CC1(C)Cc2c(sc3nn[nH]c(=O)c23)CO1 | inconclusive: 39.8 µM [inhibitor, single point] | – |
| Cc1ccc2nc3c(cc(C#N)c(=O)n3CCN3CCOCC3)c(=O)n2c1 | inconclusive: 31.6 µM [inhibitor, single point] | – |
| O=C1c2ccccc2C(=O)N1CCC(c1ccc(F)cc1)c1ccco1 (centres undefined) | inconclusive: 31.6 µM [inhibitor, single point] | – |
| CCOc1ccc(C2C=C(c3ccccc3)Nc3nnnn32)cc1 (centres undefined) | active: 31.6 µM | – |
| CCOCc1nnc(NC(=O)CCc2ccccc2)s1 | inconclusive: 25.1 µM [inhibitor, single point] | – |
| c1nc(NCCc2cnc[nH]2)c2[nH]cnc2n1 | – | inactive: 0.809% [at 11.4 µM] |
